# Publication PMC4336329 (PLoS ONE, 2015)
# The campaign covered roughly 310,000 compounds. About 14,000 (4.5%) showed an effect of 50% or more. The effect is printed as a negative number. The list shows a part of the results.
# Biological target: human ether-à-go-go-related gene (hERG) potassium channel (human, UniProt Q12809)
# Test: primary screen, population patch clamp on CHO cells stably expressing hERG
# 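Note: peak tail current of the secondary pulse compared with the same well before compound.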
# Sequence of human ether-à-go-go-related gene (hERG) potassium channel (Q12809 whole entry, looked up): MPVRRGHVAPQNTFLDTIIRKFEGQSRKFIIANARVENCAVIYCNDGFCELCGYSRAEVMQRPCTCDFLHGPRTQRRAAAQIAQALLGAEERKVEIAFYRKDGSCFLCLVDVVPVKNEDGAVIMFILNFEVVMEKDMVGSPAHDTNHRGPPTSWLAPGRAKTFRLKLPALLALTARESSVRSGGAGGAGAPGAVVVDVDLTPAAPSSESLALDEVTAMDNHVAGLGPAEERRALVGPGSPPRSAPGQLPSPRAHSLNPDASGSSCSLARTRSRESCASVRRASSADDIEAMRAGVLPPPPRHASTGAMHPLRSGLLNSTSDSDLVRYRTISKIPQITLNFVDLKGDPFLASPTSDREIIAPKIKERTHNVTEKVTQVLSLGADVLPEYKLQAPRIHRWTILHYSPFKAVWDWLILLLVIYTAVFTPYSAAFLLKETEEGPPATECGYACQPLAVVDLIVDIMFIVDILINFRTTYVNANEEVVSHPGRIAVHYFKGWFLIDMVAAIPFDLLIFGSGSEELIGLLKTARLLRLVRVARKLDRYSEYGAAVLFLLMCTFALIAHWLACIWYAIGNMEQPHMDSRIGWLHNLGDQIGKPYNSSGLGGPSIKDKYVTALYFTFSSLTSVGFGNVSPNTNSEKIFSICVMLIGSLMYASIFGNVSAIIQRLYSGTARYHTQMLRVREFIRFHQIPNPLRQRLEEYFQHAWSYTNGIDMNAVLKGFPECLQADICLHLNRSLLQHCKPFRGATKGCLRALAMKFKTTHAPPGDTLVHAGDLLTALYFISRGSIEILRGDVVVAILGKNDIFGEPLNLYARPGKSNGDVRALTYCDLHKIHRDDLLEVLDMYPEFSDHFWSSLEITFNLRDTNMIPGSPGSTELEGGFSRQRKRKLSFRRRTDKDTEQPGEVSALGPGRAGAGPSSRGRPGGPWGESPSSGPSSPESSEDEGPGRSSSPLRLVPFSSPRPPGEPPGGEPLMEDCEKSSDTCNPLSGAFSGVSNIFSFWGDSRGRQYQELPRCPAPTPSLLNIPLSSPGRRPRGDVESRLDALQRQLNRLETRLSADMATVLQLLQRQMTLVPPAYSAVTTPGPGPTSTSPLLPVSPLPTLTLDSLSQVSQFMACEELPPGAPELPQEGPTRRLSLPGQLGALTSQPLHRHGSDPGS
row,SMILES,"hERG current change (%, negative = inhibition) at 10uM"
1,CCCN(CCC)CCCNC(=O)c1cn(CCOC)c(=O)c2c1c1ccccc1n2C,-10.6%
2,O=C(O)C(Cc1ccccc1)N1C(=O)C2CCCCC2C1=O (stereo not drawn),13.3%
3,COc1ccc(-c2cnc(SCCNC(=O)c3ccc4c(c3)OCO4)[nH]2)cc1,-5.44%
4,COc1ccc(C(=O)c2c[nH]c(C(=O)N=CN(C)C)c2)cc1,10.2%
5,CCn1nc(NC(=O)c2cccs2)c2cc3ccccc3nc21,-21%
6,CC(C)CNc1ncnc2c1cnn2Cc1ccccc1Cl,-12.8%
7,C=C(C)C(=O)N1CC2(CC(c3cccc(NC(=O)COc4ccc(Cl)cc4)c3)=NO2)C[C@@H]1C(N)=O (stereo partly drawn),-15.3%
8,Cc1ccc(Oc2c(C=O)c3ccccc3n2C)cc1,-8.24%
9,O=C(O)c1cccc(S(=O)(=O)Nc2ccccc2N2CCOCC2)c1,-22%
10,Cc1ccc(Oc2cc(NC(=O)CCCn3nc([N+](=O)[O-])c(Cl)c3C)cc([N+](=O)[O-])c2)cc1,4.54%
11,C/C(N)=C(/C#N)C(=O)COC(=O)Cc1coc2ccc3ccccc3c12,24.3%
12,CCC(=O)c1ccc(OCC(O)CN2CCN(c3ccc(F)cc3)CC2)cc1 (stereo not drawn),-26.8%
13,CCCn1ncc(CN2CCC(n3nccc3NC(=O)c3ccccc3Cl)CC2)c1C,-75.8%
14,Nn1c(COc2cccc(Br)c2)nnc1SCC(=O)N1CCc2ccccc2C1,-27%
15,C=CCNC(=O)Cc1c(OC)ccc2cc(Br)ccc12,-0.948%
16,O=C(N/N=C/c1cccc([N+](=O)[O-])c1)c1cc(-c2ccccc2)nc2ccccc12,7.64%
17,CCN(CC)S(=O)(=O)c1cc(C(=O)Nc2cc(C)[nH]n2)ccc1Cl,-10.3%
18,COc1ccc(NS(=O)(=O)c2ccc3c(c2)CCC(=O)N3)c(OC)c1,-10.4%
19,COCCNC(=S)N/N=C/c1ccc(N2CCOCC2)cc1,10.3%
20,O=C(CSCc1ccco1)Nc1cc(C(F)(F)F)ccc1N1CCOCC1,-49%
21,CCOC(=O)N/N=C(C)/C=C/c1ccccc1,15.7%
22,CCN(C(=O)c1ccnc(C(C)(C)C)c1)c1ccccc1,-4.86%

row,SMILES,"hERG current change (%, negative = inhibition) at 10uM"
1,COc1ccc(S(=O)(=O)Cc2ccc(C(=O)N3CCC(C(N)=O)CC3)o2)cc1,11.1%
2,Cc1c(CCO)c(=O)oc2n[nH]c(-c3ccccc3)c12.Cl,6.37%
3,C/C(Cn1nnc([N+](=O)[O-])n1)=N\NC(=O)c1ccccc1Cl,-2.2%
4,Cc1cc(=O)nc2c3ccccc3n(CC(=O)NCCCN3CCOCC3)n12,17.6%
5,O=C(O)CCS(=O)(=O)c1nc(-c2cccs2)cc(C(F)(F)F)n1,0.386%
6,CCOC(=O)c1c(NC(=O)Cc2cccs2)sc(C(=O)NC2CCCCC2)c1C,13%
7,CCOc1ccc(C(=O)OCC(=O)Nc2cccc(S(=O)(=O)N3CCCC3)c2)cc1,-8.49%
8,CCc1nnc(NC(=O)C2CCCN2C(=O)Nc2ccc(C)cc2)s1 (stereo not drawn),13.3%
9,Cc1cc(C)nc(NC(=NCCc2c[nH]c3ccccc23)NC(=O)c2ccco2)n1,7.46%
10,CCOC(=O)C1CCN(Cc2cccc(OCc3ccccc3)c2)CC1.O=C(O)C(=O)O,-43.2%
11,O=C(O)CNC(=O)c1ccc(OC(F)F)cc1,7.84%
12,CC(=O)NCCC(=O)Nc1nc2ccc(Oc3ccccc3)cc2s1,-19.8%
13,O=[N+]([O-])c1cccc(-c2cc(C(F)(F)F)n3nc(-c4ccccc4)cc3n2)c1,4.94%
14,Cc1cc(C)c(C(=O)Nc2ccc(S(=O)(=O)Nc3onc(C)c3C)cc2)c(C)c1,0.525%
15,Cc1ccc(Oc2c(F)c(F)nc(N3CCCC3)c2F)cc1,-8.46%
16,CCOC(=O)/C(C#N)=C1\Nc2ccccc2N=C1N(CC(C)C)CC(C)C,10.3%
17,CC(C)OC(=O)N(C)c1ccc(C(O)(C(F)(F)F)C(F)(F)F)cc1,-19.3%
18,CCCn1c(C(O)c2ccc(C)cc2)nc2ccccc21 (stereo not drawn),15.8%
19,CC(=O)Nc1ccc(S(=O)(=O)Nc2nccc(C)n2)cc1,-20.2%
20,CCOc1ccc(NC(=O)Cc2cccc3ccccc23)c([N+](=O)[O-])c1,7.66%
21,CCN(CC)CCNC(=O)CCCNC(=O)Cn1cnc2sc(C)c(C)c2c1=O,-6.02%
22,O=C(Nc1ccccc1C(F)(F)F)c1cc2ccccc2o1,15.8%

row,SMILES,"hERG current change (%, negative = inhibition) at 10uM"
1,C=CCn1cccc(C(=O)Nc2ccc(OCC)cc2)c1=O,-13.6%
2,CCOC(=O)/C=C(\C)N1N=C(c2ccccc2)CC1c1ccccc1 (stereo not drawn),-1.77%
3,CC(C)c1ccc(N=Cc2c(O)n(C3CC3)c(=S)[nH]c2=O)cc1,2.22%
4,Cc1cccc(NS(=O)(=O)c2c(C(=O)N3CCOCC3)c(C)n(C)c2C)c1C,20%
5,CC(C)NC(=O)CCc1nc2cccnc2n1-c1ccccc1,-9.04%
6,C=CCNC(=S)Nc1cccc(N)c1,-1.06%
7,CC(=O)Nc1ccc(NC(=O)CCCSc2nc3ccccc3[nH]2)cc1,-2.05%
8,Cc1ccc(Oc2nc(CN3CCOCC3)nc3sc4c(c23)CCC(C)C4)cc1 (stereo not drawn),-0.246%
9,COc1ccc(/C=N/c2oc(-c3ccccc3)cc2C#N)cc1OC,-3.51%
10,Cc1cc(=O)oc2cc(OC(C)C(=O)NC3(C#N)CCCCC3)ccc12 (stereo not drawn),-13.9%
11,CC1CN(C2CCCCC2)c2nc3c(c(=O)n(C)c(=O)n3C)n2C1 (stereo not drawn),-3%
12,COc1ccc(C(Nc2ccccn2)c2c(NC(=O)c3ccco3)sc(C)c2C)cc1 (stereo not drawn),-8.28%
13,O=C(CNC(=O)C(c1ccccc1)c1ccccc1)OCC(=O)c1cccs1,-3.52%
14,O=C(c1ccc(F)cc1)C1CCN(C(=O)Nc2ccccc2Cl)CC1,-23%
15,O=C(c1ccc(Cl)c(S(=O)(=O)N2CCOCC2)c1)N1CCN(Cc2ccccc2)CC1,-25.3%
16,N#Cc1ccc(NC(=O)CCNC(=O)c2ccco2)cc1Cl,1.68%
17,Cc1cc([N+](=O)[O-])ccc1NCc1ccccc1[N+](=O)[O-].O=C(O)C(=O)O,14.1%
18,CCOC(=O)C(=Cc1ccc(OCc2ccc([N+](=O)[O-])cc2)c(OC)c1)C(=O)OCC,-16.4%
19,Cc1nc2c(Cl)cccc2[nH]1,7.09%
20,CC(=O)N(C)c1ccc(N=Cc2cc3c(cc2[N+](=O)[O-])OCO3)cc1,11.1%
21,CN(C1CCCCC1)S(=O)(=O)c1ccc(SCC(=O)NC(C)(C)C)nc1,22.2%
22,Cc1nn(-c2nc3ccccc3[nH]2)c(N)c1-c1ccccc1,0.295%

row,SMILES,"hERG current change (%, negative = inhibition) at 10uM"
1,CCOc1ccc(NC(=S)N2CCN(CCN3C(=O)c4cccc5cccc(c45)C3=O)CC2)cc1,9.17%
2,OCCC1CN(Cc2cnc(-c3cccc4ccccc34)nc2)CCN1C1CCCCC1 (stereo not drawn),-13.2%
3,CC(C)(C)CC(C)(C)NCC(O)COc1c(F)cc(Br)cc1F.Cl (stereo not drawn),-40.3%
4,CN(C)c1ncccc1-c1nc2ccccc2s1,16.4%
5,O=C(O)c1ccc(Nc2nc3ccc(Cl)cc3[nH]2)cc1,17%
6,COc1ccc2oc(=O)cc(-c3cc4cccc(OC)c4o3)c2c1,17.3%
7,CCOC(=O)C1CCCN(c2c(NCC3CCCN3CC)c(=O)c2=O)C1 (stereo not drawn),14.5%
8,CCC(NC(=O)OC(C)(C)C)C(=O)Oc1ccc2c3c(c(=O)oc2c1)CCC3 (stereo not drawn),8.08%
9,CSc1ccc(-c2nnn(Cc3ccccn3)n2)cc1,-11.5%
10,O=C(CSCCO)Nc1cccc([N+](=O)[O-])c1,17.5%
11,Cc1cc(C(=O)Nc2ccccc2C(=O)O)ccc1NC(=O)COc1cccc([N+](=O)[O-])c1,19.8%
12,CCOC(=O)c1ccc(-c2ccc3c(=O)c4ccccc4n(C)c3c2)cc1F,9.61%
13,O=C(NNC(=O)c1ccc(Cl)cc1Cl)c1ccncc1,17%
14,COc1ccc(N(C)S(=O)(=O)c2cccc(C(=O)Nc3ccc(N4CCOCC4)cc3)c2)cc1,-13.9%
15,CN(Cc1ccccc1)C(NC(=O)c1ccccc1)C(Cl)(Cl)Cl (stereo not drawn),7.9%
16,O=C(CNC(=O)c1ccco1)NCC(=O)OCc1ccccc1Cl,-11.8%
17,COc1cc(NC(=S)NC2CC(C)(C)NC(C)(C)C2)c(OC)cc1Cl,-3.66%
18,Cn1c(=O)c2c(nc(SCc3ccccc3F)n2C)n(C)c1=O,13.2%
19,CC(C)C1=CC(=NS(=O)(=O)c2cccc([N+](=O)[O-])c2)C=C(C(C)C)C1=O,5.69%
20,O=C(NC1CCN(Cc2ccccc2)CC1)c1ccccc1OCc1ccccc1Cl,-69.2%
21,CN(CC(=O)Nc1ccc(C#N)cc1)Cc1ccc(Cl)cc1Cl,-66.8%
